Assay results from publication PMC13052863 (PLOS One, 2026).
“And” between values parts separate entries of the source, which are not always exact repeats. Equal entries are not always repeated.

How the values were obtained:
[1] = test system: A. suspensa eIF4A wt
Text: (§1) TSA is used to determine protein stability by measuring the melting temperature (Tm) of a protein alone or in a complex (here with RNA oligos and inhibitors) using the fluorescent dye SYPRO Orange. The latter binds to hydrophobic residues which usually are in the core of the protein. With increasing temperature, the protein starts to unfold and expose its hydrophobic residues, allowing the dye to bind. Thus, with increasing temperature, fluorescence first increases until it reaches a peak, followed by a decrease corresponding to the dissociation of the protein-dye complex due to high temperatures. Tm is calculated as the inflexion point of the curve. A shift of the melting curve to higher temperature is indicative of a stabilization effect (here clamping of the protein to the RNA oligo in presence of the inhibitor), whereas a shift to lower temperature indicates a destabilization effect. Here, the difference in melting temperature ΔTm (°C) was calculated between the eIF4A and the eIF4A-RNA-AMP-PNP complex with two inhibitor classes (rocaglate and pateamine in Fig 5) or different RNA oligos (Fig 6). TSA experiments were performed on a real-time PCR system (QuantStudio™ 3, Applied Biosystems, Waltham, MA, USA) in a MicroAmp™ Fast Optical 96-well plate (Applied Biosystems, Waltham, MA, USA) using QuantStudio™ Design & Analysis software (version 1.4.2.). 5 μM of recombinant eIF4A was incubated with 50 μM of a polypurine RNA (AG)5 (Biomers, Ulm, Germany), 1 mM AMP-PNP (Roche, Basel, Switzerland), 100 μM of inhibitors (silvestrol, RocA, CR-31-B (+), CR-31-B (-), zotatifin, PatA, DMDAPatA) and 75 μM of SYPRO Orange (S6650, Invitrogen, Carlsbad, CA, USA) in 20 mM HEPES–KOH buffer pH 7.5, 100 mM KCl, 5 mM MgCl2, 1 mM DTT and 10% (v/v) glycerol at RT in a final volume of 20 µL. In the first step, the protein sample was subjected to a cooling rate of 1.6 °C/s until a temperature of 10 °C was reached and kept constant for two minutes. In the second step, the temperature was increased by 0.05 °C/s until a temperature of 95 °C was reached and kept constant for one minute. In the final step, the temperature was decreased by 1.6 °C/s until 10 °C and kept constant for one minute. The wavelength of the fluorescence scan for excitation and emission was set to the spectroscopic maxima of SYPRO® Orange (472 nm and 570 nm, respectively). The melting curves were analyzed using Protein Thermal Shift Software (version 1.3) from Thermo Fisher Scientific.

[2] = test system: Ae. aegypti eIF4A mutant H161L; conditions: S2 Table; Ae. aegypti mut., (AG)5 RNA, AMP-PNP, 100 μM inhibitor
Text: as §1

[3] = test system: Ae. aegypti eIF4A wt
Text: as §1

[4] = test system: A. suspensa eIF4A mutant Y160L; conditions: S2 Table; A. suspensa mut., (AG)5 RNA, AMP-PNP, 100 μM inhibitor
Text: as §1

[5] = molecular target: T1, D. melanogaster eIF4A mutant Y160L (Drosophila melanogaster, UniProt Q02748, Y160L); format: binding; conditions: S2 Table; D. melanogaster mut., (AG)5 RNA, AMP-PNP, 100 μM inhibitor
T1 construct: made in house; host or cells: E. coli BL21 (DE3)

[6] = molecular target: T2, D. melanogaster eIF4A wt (Drosophila melanogaster, UniProt Q02748); format: binding; conditions: S2 Table, (AG)5 RNA, AMP-PNP, 100 μM inhibitor
T2 construct: made in house; host or cells: E. coli BL21 (DE3)

| SMILES | ∆Tm [1] [°C] | ∆Tm [2] [°C] | ∆Tm [3] [°C] | ∆Tm [4] [°C] | ∆Tm [5] [°C] | ∆Tm [6] |
| --- | --- | --- | --- | --- | --- | --- |
| COc1cc2c(c(OC)n1)[C@]1(O)[C@H](O)[C@H](CN(C)C)[C@@H](c3ccccc3)[C@]1(c1ccc(C#N)cc1)O2 [zotatifin] | 3.56 | 6.25 | 7.47 | 0.07 | 1.48 | 3.24 °C and 3 °C |
| COC(=O)[C@H]1[C@@H](O)[C@@]2(O)c3c(OC)cc(O[C@@H]4O[C@@H]([C@H](O)CO)CO[C@H]4OC)cc3O[C@@]2(c2ccc(OC)cc2)[C@@H]1c1ccccc1 [silvestrol] | – | 7.84 | – | – | 1.76 | 9.55 °C |
| CONC(=O)C1C(O)C2(O)c3c(OC)cc(OC)cc3OC2(c2ccc(OC)cc2)C1c1ccccc1 (stereo not drawn) [CR-31-B (+)] | -3.20 | 2.21 | 1.89 | -3.46 | -2.10 | -2.27 °C |
| COc1ccc([C@@]23Oc4cc(OC)cc(OC)c4[C@]2(O)[C@H](O)[C@H](C(=O)N(C)C)[C@H]3c2ccccc2)cc1 [RocA, rocaglamide A] | 3.89 | 6.87 | 8.14 | 0.97 | 0.68 | 4.52 °C |
| CONC(=O)C1C(O)C2(O)c3c(OC)cc(OC)cc3OC2(c2ccc(OC)cc2)C1c1ccccc1 (stereo not drawn) [CR-31-B (-)] | – | 7.50 | – | – | 0.74 | 6.55 °C |
| CC(/C=C/C(C)=C/[C@@H]1Cc2nc(cs2)[C@@H](C)C[C@@H](N)CC(=O)O[C@@H](C)C/C(C)=C/C=C\C(=O)O1)=C\CN(C)C [PatA, pateamine A] | 9.44 | 12.09 | – | – | 7.5 | 8.43 °C |
| CC(/C=C/C(C)=C/[C@@H]1Cc2nc(cs2)CCCCC(=O)O[C@@H](C)C/C(C)=C/C=C\C(=O)O1)=C\CN(C)C [DMDAPatA, desmethyl desamino pateamine A] | 6.93 | 7.41 | 8.6 | 2.50 | 4.00 | 8.86 °C |
